The list shows a part of the results. At the low end of the ranking the order means little.
target: MAX:MAX (p21) (UniProt P61244-2); experiment: protein-binding microarray (anti-MAX antibody); conditions: PBM: 15 mM Tris-HCl pH 7.5, 100 mM KCl, 0.075% NP40, 7.5 mM beta-mercaptoethanol, 375 ng/ul BSA, 8 ng/ul poly(dA-dT):(dA-dT), 550 ng complex, 60 min, room …; high values mean tight binding; double strand, one strand shown; sequences stand for … in CCGGC…TTAATAGCTAAGATTACTATATCGACG

Sequence	binding signal (log2 normalized fluorescence)
TGAGTCGGTGTA	-1.17
TGAGGGTCAGTA	-0.48
TGAGCTCGGGTA	-1.11
TGAACCATTGTA	-0.372
TGACATATTGTA	0.881
TGACAACATGTA	1.84
TGAAAGTTAGTA	-1.01
TGAAGACCGGTA	-0.351
TGGCACGCGGTC	3.28
TGAACCCACGTA	0.752
CGTCACGTGGTA	3.18
TCAGACGTGGTA	1.39
TACTATGCCATG	0.457
TGACCAGGGGTA	0.376
TGATATGATGTA	-0.575
TGACAGACAGTA	-0.222
TGATTAATGGTA	-0.668
TTACACATGATA	3.07
TGAAAGTTCGTA	-0.908
TGACTGCGTGTA	1.44
TGACTAAATGTA	-0.623
TGATGACTTGTA	-0.0419
TGACTTGCGGTA	0.467
TGACAATGGGTA	0.0164
TGAACTGCGGTA	-0.566

Sequence	binding signal (log2 normalized fluorescence)
TGACAGCTGGTA	1.07
TGATCTGCAGTA	-0.379
TGACTGAGCGTA	-0.505
TGATTCTATGTA	-1.1
TGATCTCGTGTA	2.34
TGATGTATAGTA	0.0267
TGAGGCCGGGTA	-0.931
TGACGTACGGTA	-0.179
TGATGGCTAGTA	-0.159
TGATTATGTGTA	-0.483
TGGCACGTGGTG	3.4
TGATAATTCGTA	-1.14
CGTCACGTGGTT	3.22
TGACCTCAGGTA	-0.119
TGAAATTAGGTA	-1.08
TGATGATGCGTA	-0.181
TGAGGGGGAGTA	1.48
TGAAGTACCGTA	-0.581
TGAACTACGGTA	-0.733
TGAGACCTGCTA	-0.292
TGAATCTATGTA	-0.843
TGACAAGCTGTA	0.0955
TGAGACGGGGTC	-0.246
TGAGCCCTGGTA	-0.767
TGATACGTGGTC	1.41

Sequence	binding signal (log2 normalized fluorescence)
TGAACAATGGTA	-0.315
TGAAAAGATGTA	-0.461
TGAATGCGAGTA	0.25
TGAGAAGAGGTA	-0.834
TTGGTGTACACT	-0.194
TGACGACGTGTA	1.17
TGATAAACCGTA	-0.493
TGATTAGCGGTA	-1.14
TGAACGTCGGTA	-0.0408
TGTCACGTGGTA	3.12
TGAAGAATGGTA	0.22
TGAGGCCCTGTA	-0.901
CGACACGTGCTT	3.21
TGACTCGTTGAA	0.115
AGACACGTGATA	3.29
TGAGACCGTGTA	0.319
TGAACACGAGTA	2.73
TGACTACTGGTA	-0.334
TGACACGATCTA	1.3
TGATATCAGGTA	-0.338
TGATAACTAGTA	-1.04
TGAACTGAGGTA	-0.682
TGATTGCGAGTA	-0.512
TGAATATGTGTA	-0.181
TGAGAGTAGGTA	-0.927

Source: PMC5515408
